Assay results published in PubChem BioAssay AID504832 (National Center for Advancing Translational Sciences (NCATS), 2011).
Among all 310,000 compounds or so, about 18,000 (5.8%) were called active. This list was built around the results that the source calls inconclusive (neither active nor inactive); the mix of calls is not that of the screen. The call rests on the fitted dose curve; in most records, active means well fitted inhibition curve with a large enough effect; inconclusive means small, poorly fitted or top-dose-only effect, or another doubt; inactive means no such curve, though single readings can be large or run the other way. Potencies of inconclusive entries are left out as doubtful fits.

Experiment: Primary qHTS for delayed death inhibitors of the malarial parasite plastid, 48 hour incubation
Conditions: P. falciparum luciferase growth in erythrocytes; series mostly up to 28.7 µM
Outline: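 Here the parasites carry a stable luciferase gene and grow inside erythrocytes in Albumax-based RPMI medium with compound for one erythrocytic cycle. Activity is scored as loss of luminescent signal.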
Potency means the concentration at half of the fitted maximal effect; tags describe the fitted curve by direction and shape.

Structure (SMILES) | Potency
C/C=C(\C)CN1CCC(Oc2cccc(C(=O)NCc3ccccn3)c2)CC1 | inactive
CCN1CCN(CCCNC(=O)c2ccc3c(=O)n(CCc4ccccc4)c(=O)[nH]c3c2)CC1 | inconclusive [inhibitor, single point]
COc1cc(C)nc(N2CCCC(C(=O)Nc3cc(Cl)ccc3OC)C2)n1 (stereo not given) | inconclusive [inhibitor, partial curve]
Cc1ccc(NC(=S)N(CCCN2CCN(C)CC2)Cc2cccs2)cc1 | inconclusive [inhibitor, single point]
CSc1ccc(CN(C)CC(=O)NC(C)c2ccccc2)cc1 (stereo not given) | inactive
Clc1ccc(-c2n[nH]c3c2Cc2ccccc2-3)cc1Cl | inconclusive [inhibitor, single point]
Cc1ccc(C)c(C2NC(=O)c3ccccc3N2)c1 (stereo not given) | inactive
Cc1ccc(S(=O)(=O)NCCC(=O)NCC(c2ccco2)N2CCCCC2)cc1C (stereo not given) | inconclusive [inhibitor, partial curve, poor fit]
COc1ccc(NC(=O)CC2CCCC2)cc1S(=O)(=O)N1CCCCC1 | inactive
CC(Sc1nnc(CC(=O)Nc2ccccc2F)n1C)C(=O)Nc1nccs1 (stereo not given) | inactive
CCCC(C)NC(=O)CN1C(=O)NC2(CCc3ccccc32)C1=O (stereo not given) | inactive
NNC(=O)CN1C(c2ccccc2)=Nc2ccc(Br)cc2C1c1ccccc1 (stereo not given) | inconclusive [inhibitor, single point]
O=C(c1ccccc1Sc1cccc2ccccc12)N1CCOCC1 | active: 10.4 µM
O=C(Nc1ccc(S(=O)(=O)Nc2ncccn2)cc1)c1cccc(S(=O)(=O)N2CCOCC2)c1 | inactive
COc1ccc(-c2cc3nc4n(c(=O)c3s2)CCC4)cc1 | inactive
FC(F)Oc1ccc(NC(=S)Nn2cnnc2)cc1 | inactive
COc1cc(CN2CCNC(=O)C2CC(=O)N2CCCN(C(C)=O)CC2)cc(OC)c1 (stereo not given) | inactive
Cc1ccc(OS(=O)Nc2cccc3nccnc23)cc1 (stereo not given) | inconclusive [inhibitor, single point]
N#C/C(C(=O)N1CCOCC1)=C1/SC(Cc2ccccc2)C(=O)N1c1ccccc1 (stereo not given) | inactive
COc1ccccc1Nc1ccncc1[N+](=O)[O-] | inconclusive [inhibitor, partial curve, poor fit]
CC(C)N(Cc1ccccc1)C(=S)Nc1ccc(OC(F)F)cc1 | inactive
Cc1ccccc1N(CC(=O)Nc1ccccc1C(=O)NCc1ccco1)S(=O)(=O)c1ccccc1 | inconclusive [inhibitor, single point]
Cc1ccc(-n2c(C)cc(/C=N/Nc3ccc([N+](=O)[O-])cn3)c2C)c(C)c1 | inconclusive [inhibitor, full curve, poor fit]

Structure (SMILES) | Potency
Cc1cccc2cc(CN(C(=O)c3cccs3)c3ccccc3)c(=O)[nH]c12 | inactive
CC(C)N=C(Nc1ccccc1)c1cccnc1 | inactive
CCOC(=O)C1(Cc2cccc(F)c2)CCN(Cc2cnc(C)s2)CC1 | inconclusive [inhibitor, single point]
COc1ccc(CCNC(=O)CSc2nc3[nH]ncc3c(=O)n2-c2ccc(Br)cc2)cc1OC | inconclusive [inhibitor, partial curve, poor fit]
Cc1cccc(NC(=O)CSc2nc(-c3ccco3)nc3cc(=O)[nH]n23)c1 | inconclusive [inhibitor, single point]
COc1ccc(CCNC(=O)COc2ccc(-c3ccc(C)cc3)cc2)cc1OC | inconclusive [inhibitor, partial curve, poor fit]
CC(=O)c1ccc(NC(=O)C2C3C=CC(C3=C(c3ccccc3)c3ccccc3)C2C(=O)O)cc1 (stereo not given) | inconclusive [inhibitor, full curve, poor fit]
O=C(Nc1nc2ccccc2n1CCN1CCCC1)c1ccc(Cl)cc1 | inconclusive [inhibitor, single point]
O=C(NNC(=S)NC(=O)c1cccnc1)c1ccc(Cl)cc1 | inconclusive [inhibitor, single point]
O=C(Nc1ccc(F)cc1)c1c(Cl)nc2ccccn12 | inactive
NS(=O)(=O)c1ccc(CCNCc2cc(Cl)ccc2OCc2ccccc2)cc1 | inconclusive [inhibitor, single point]
COc1ccc(F)cc1CSc1nnnn1-c1ccc(O)cc1 | inactive
Cc1ccc2cc(C#N)c(N3CCCN(C(=S)NCCCN(C)C)CC3)nc2c1 | active: 10.4 µM
CC(C)CNC(=O)CN(c1ccccc1)S(=O)(=O)c1ccccc1[N+](=O)[O-] | inconclusive [inhibitor, partial curve, poor fit]
O=[N+]([O-])c1cc(C(F)(F)F)cc([N+](=O)[O-])c1N1CCN(S(=O)(=O)c2ccccc2)CC1 | inconclusive [inhibitor, single point]
C=CCN1CCc2cccc3c2[C@H]1Cc1ccc(O)c(O)c1-3 | inconclusive [inhibitor, partial curve]
COC(=O)[C@H](Cc1ccccc1)NC(=O)c1ccc2ccccc2n1 | inactive
CCn1c(SCC(=O)NCCc2ccc(Cl)cc2)nnc1-c1cccs1 | inconclusive [inhibitor, partial curve, poor fit]
O=[N+]([O-])c1ccc(N/N=C/c2ccccc2O)cc1 | inconclusive [inhibitor, single point]
CCN1C(=O)[C@@H]2[C@@H](c3ccc(-c4ccc(F)cc4)cc3)N3CCCC[C@@]3(C(=O)OC)[C@@H]2C1=O | active: 10.4 µM
CCCn1c(=O)c2sccc2n2c(CCCC(=O)NCC3CCCO3)nnc12 (stereo not given) | inconclusive [inhibitor, partial curve, poor fit]
CC(C)[C@H](NC(=O)[C@@H]1Cc2ccccc2CN1C(=O)OC(C)(C)C)C(=O)NCc1ccco1 | inconclusive [inhibitor, partial curve]
